The whole screen tested about 310,000 compounds, of which about 2,200 (0.71%) showed an effect of 50% or more. The effect is printed as a negative number. The list shows a part of the results.
The molecules below were run against human ether-à-go-go-related gene (hERG) potassium channel (human, UniProt Q12809) (assay: primary screen, population patch clamp on CHO cells stably expressing hERG).
Chain of human ether-à-go-go-related gene (hERG) potassium channel (Q12809 whole entry, looked up): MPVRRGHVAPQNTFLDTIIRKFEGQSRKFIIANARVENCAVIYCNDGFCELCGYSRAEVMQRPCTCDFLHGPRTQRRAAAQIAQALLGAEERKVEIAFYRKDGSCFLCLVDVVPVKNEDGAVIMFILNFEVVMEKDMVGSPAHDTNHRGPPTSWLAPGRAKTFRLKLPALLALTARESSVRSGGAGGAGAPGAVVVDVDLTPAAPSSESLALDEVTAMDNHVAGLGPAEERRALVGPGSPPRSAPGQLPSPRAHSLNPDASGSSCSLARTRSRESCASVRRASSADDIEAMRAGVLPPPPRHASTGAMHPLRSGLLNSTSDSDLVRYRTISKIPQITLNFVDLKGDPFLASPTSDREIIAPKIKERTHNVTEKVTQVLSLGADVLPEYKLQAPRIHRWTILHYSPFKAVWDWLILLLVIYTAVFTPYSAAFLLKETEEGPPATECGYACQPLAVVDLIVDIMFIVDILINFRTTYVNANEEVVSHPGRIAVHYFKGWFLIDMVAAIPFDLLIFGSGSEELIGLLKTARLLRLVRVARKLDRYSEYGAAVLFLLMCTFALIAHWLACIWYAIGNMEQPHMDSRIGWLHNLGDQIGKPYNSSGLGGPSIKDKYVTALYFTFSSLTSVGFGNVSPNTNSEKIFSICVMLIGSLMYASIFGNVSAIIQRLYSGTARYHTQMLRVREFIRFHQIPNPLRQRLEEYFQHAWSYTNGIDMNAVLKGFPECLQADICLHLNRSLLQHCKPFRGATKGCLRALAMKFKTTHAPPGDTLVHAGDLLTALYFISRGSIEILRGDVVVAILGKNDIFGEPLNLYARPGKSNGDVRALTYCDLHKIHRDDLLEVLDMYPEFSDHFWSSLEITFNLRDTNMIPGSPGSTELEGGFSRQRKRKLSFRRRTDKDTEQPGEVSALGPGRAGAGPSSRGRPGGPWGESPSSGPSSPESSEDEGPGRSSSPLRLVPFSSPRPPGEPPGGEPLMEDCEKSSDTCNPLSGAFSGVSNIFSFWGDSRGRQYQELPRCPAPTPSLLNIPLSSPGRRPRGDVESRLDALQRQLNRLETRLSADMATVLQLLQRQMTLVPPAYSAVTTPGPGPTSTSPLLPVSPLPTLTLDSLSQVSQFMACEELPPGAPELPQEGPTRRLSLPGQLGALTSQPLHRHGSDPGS

First: Cn1c(SCc2ccccc2)nnc1-c1ccc2c(c1)OCO2
Second: CCc1cccc(N=c2c([N+](=O)[O-])nn(-c3ccc4c(c3)OCCO4)n2O)c1
The “hERG current change (%, negative = inhibition) at 1uM” value of the first is lower: -1.22% for the first, 7.25% for the second.

First: Cc1cc(CN(C)C(=O)CC2C(=O)NCCN2Cc2ccc(-c3ccccc3)cc2)on1 (stereo not drawn)
Second: Cn1c(=O)n(Cc2ccccc2)c(=O)c2c1nc1n2CCN1Cc1ccco1
The “hERG current change (%, negative = inhibition) at 1uM” value of the first is higher: 16% for the first, 6.89% for the second.

Going from `C=CCOc1ccc(NC(=O)C2CC(=O)N(C(C)C)C2)cc1` (stereo not drawn) to `COc1ccc(-n2ncc3c2CC(C)(C)CC3NC(=O)CCN2CCCCC2=O)cc1` (stereo not drawn), the “hERG current change (%, negative = inhibition) at 1uM” value falls from 15.2% to 9.2%.

Compared with `Cc1cc(C(=O)OCC(=O)NC2CC2)ccc1[N+](=O)[O-]`, `N#CCC(=O)Nc1ccc(C(=O)OCC(=O)c2ccc3c(c2)OCO3)cc1` is higher in “hERG current change (%, negative = inhibition) at 1uM” value: -3.4% for the first, 9.98% for the second.

Going from `CN(C)c1nc(N(C)C)nc(N(C#N)CN2C(=O)c3ccccc3C2=O)n1` to `CN(C(=O)c1cc2c(s1)-c1ccccc1S(=O)(=O)C2)c1ccccc1F`, the “hERG current change (%, negative = inhibition) at 1uM” value rises from 1.6% to 8.83%.

Compared with `COc1cc(OC)c(NC(=O)CCNS(=O)(=O)c2ccc3c(c2)oc(=O)n3C)cc1Cl`, `COc1ccc(-c2ccnc(SCC(=O)c3ccc(OC)c(OC)c3)n2)cc1` is lower in “hERG current change (%, negative = inhibition) at 1uM” value: 11.5% for the first, 9.11% for the second.

First: COC(=O)C1CCN(S(=O)(=O)c2c(C)n(C)c(=O)n(C)c2=O)CC1
Second: O=C(NCCc1ccccc1)C1CCN(S(=O)(=O)N2CCCCCC2)CC1
The “hERG current change (%, negative = inhibition) at 1uM” value of the first is higher: 3.6% for the first, 3.39% for the second.

First: COc1ccc(N2CCN(S(=O)(=O)CCNS(=O)(=O)c3ccccc3)CC2)cc1
Second: COc1ccc(N2C(=O)CC(N3CCCCC3)C2=O)cc1 (stereo not drawn)
The “hERG current change (%, negative = inhibition) at 1uM” value of the first is lower: 8.06% for the first, 11.9% for the second.

Going from `O=c1cc(C(F)(F)F)nc(-c2ccccc2)[nH]1` to `O=c1cnnc(Nc2ccccc2)[nH]1`, the “hERG current change (%, negative = inhibition) at 1uM” value rises from 11% to 14.6%.

Going from `CCOC(=O)n1c(=O)n(Cc2ccc(Cl)cc2Cl)c2ccccc21` to `CCOc1cccc(C(=O)Nc2cccc(C(C)=O)c2)c1`, the “hERG current change (%, negative = inhibition) at 1uM” value rises from 7.77% to 14.3%.

Going from `Cn1cc(CN(CCCN2CCOCC2)C(=S)Nc2cccc(Cl)c2)c2ccccc21` to `CN(CCc1ccccn1)C(=O)Nc1cccc(Cl)c1`, the “hERG current change (%, negative = inhibition) at 1uM” value rises from -11.4% to 7.87%.

Compared with `O=C(NC(=O)c1cccc(OC(F)(F)C(F)F)c1)OC1CCS(=O)(=O)C1` (stereo not drawn), `Cc1c(NC(=O)c2c([N+](=O)[O-])cnn2C)c(=O)n(-c2ccccc2)n1C` is higher in “hERG current change (%, negative = inhibition) at 1uM” value: -3.81% for the first, 4.38% for the second.
